Laboratory results published in article PMC4336329 (PLoS ONE, 2015).
The whole screen tested about 310,000 compounds, of which about 14,000 (4.5%) showed an effect of 50% or more. The effect is printed as a negative number. This is one part of the list.

These compounds were tested against human ether-à-go-go-related gene (hERG) potassium channel (human, UniProt Q12809) (assay: primary screen, population patch clamp on CHO cells stably expressing hERG).
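Further: peak tail current of the secondary pulse compared with the same well before compound.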

Chain of human ether-à-go-go-related gene (hERG) potassium channel (Q12809 whole entry, looked up): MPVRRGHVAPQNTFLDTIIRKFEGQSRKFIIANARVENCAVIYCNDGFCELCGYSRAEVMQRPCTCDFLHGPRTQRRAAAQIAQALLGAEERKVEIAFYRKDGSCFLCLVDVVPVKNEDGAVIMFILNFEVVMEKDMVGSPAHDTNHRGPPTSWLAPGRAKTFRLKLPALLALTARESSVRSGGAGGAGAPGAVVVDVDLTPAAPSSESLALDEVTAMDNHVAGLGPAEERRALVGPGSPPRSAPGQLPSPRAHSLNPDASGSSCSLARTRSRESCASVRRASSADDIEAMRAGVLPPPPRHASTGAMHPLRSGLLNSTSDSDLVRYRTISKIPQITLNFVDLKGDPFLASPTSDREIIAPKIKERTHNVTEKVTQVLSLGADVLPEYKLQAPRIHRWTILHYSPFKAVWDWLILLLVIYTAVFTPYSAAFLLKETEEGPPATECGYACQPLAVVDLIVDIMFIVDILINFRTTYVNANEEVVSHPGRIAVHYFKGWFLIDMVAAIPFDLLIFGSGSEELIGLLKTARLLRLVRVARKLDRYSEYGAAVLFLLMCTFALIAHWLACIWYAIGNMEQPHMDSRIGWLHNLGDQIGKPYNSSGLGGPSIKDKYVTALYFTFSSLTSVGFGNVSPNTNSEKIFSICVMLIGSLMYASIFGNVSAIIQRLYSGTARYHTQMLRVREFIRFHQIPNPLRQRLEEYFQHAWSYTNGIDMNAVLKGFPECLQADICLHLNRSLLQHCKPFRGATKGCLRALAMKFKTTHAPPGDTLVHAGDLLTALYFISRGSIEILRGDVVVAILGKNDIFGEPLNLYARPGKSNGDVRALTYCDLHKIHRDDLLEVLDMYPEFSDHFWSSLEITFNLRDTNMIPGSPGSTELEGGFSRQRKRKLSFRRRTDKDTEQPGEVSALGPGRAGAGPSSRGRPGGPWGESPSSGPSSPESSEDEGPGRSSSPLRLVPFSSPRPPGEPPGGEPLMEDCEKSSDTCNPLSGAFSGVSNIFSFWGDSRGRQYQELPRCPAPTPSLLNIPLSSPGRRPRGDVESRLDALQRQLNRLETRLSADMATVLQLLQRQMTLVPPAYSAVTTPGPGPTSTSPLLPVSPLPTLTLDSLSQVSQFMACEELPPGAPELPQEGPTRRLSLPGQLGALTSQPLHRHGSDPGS

SMILES | hERG current change (%, negative = inhibition) at 10uM [%]
Cc1ccc(S(=O)(=O)NC(Cc2ccc(Cl)cc2)C(=O)O)cc1 (centres unmarked) | 22.1
CC1CC1C(=O)Nc1cc(C(F)(F)F)ccc1N1CCOCC1 (centres unmarked) | 6.94
N#Cc1c(NC(=O)CSc2ncn[nH]2)sc2c1CCCC2 | 3.78
CCCCN1C(=O)c2ccc(C(=O)NCCN3C(=O)S/C(=C\c4cccnc4)C3=O)cc2C1=O | 3.77
COC(=O)C1CCN(C(=O)Nc2ccccc2)CC1 | 24.3
CC(/C=C/c1ccccc1)NC(N)=O (centres unmarked) | 6.49
Cc1ccc(S(=O)(=O)NNC(=S)NCCc2ccccc2)cc1 | -7.79
COc1c(C)cc(Br)cc1C(=O)Nc1cccc(NC(=O)c2ccco2)c1 | -10.1
CC12CC3CC(C)(C1)CC(C(=O)NC(=S)N1CCOCC1)(C3)C2 | -4.47
O=C(CN1CCSCC1)N/N=C/c1ccc(F)cc1 | -16.3
Fc1ccc(/C=N/NC(=S)Nc2cccnc2)cc1F | 7.07
CCCCOc1ccc(C(=O)Nc2ccc(N3CCN(C(=O)C(C)C)CC3)cc2)cc1 | 6.91
COc1ccc(-n2c(SCC(=O)NCCC(C)C)nc3ccsc3c2=O)cc1 | -11.3
O=C1CSC(c2ccccn2)N1c1ccc2ccccc2c1 (centres unmarked) | 4.18
N#Cc1ccc(Nc2ccccc2)c(N)c1 | -12.6
O=C(O)C[C@H]1c2ccc(C(F)(F)F)cc2S(=O)(=O)N1Cc1ccccc1 | 23.4
CC1=C(C(=O)NCCc2ccc(C)cc2)C2(CCC(C)CC2)OC1=O (centres unmarked) | 8.64
Cn1nc([N+](=O)[O-])nc1Oc1ccc(C(C)(C)C)cc1 | 2.92
C/C(=N\NC(=O)c1ccncc1)c1cc2ccccc2oc1=O | -1.92
CCOCCCNC(=O)CN1C2CCC1CC(O)(c1ccc(OC)cc1)C2 (centres unmarked) | -36.4
COc1ccc(/C=C/C(=O)c2ccc3c4c(cccc24)CC3)cc1OC | 20.8
O=C(Cn1ncn2nc(-c3ccccc3)cc2c1=O)NCc1ccccn1 | 17.2
O=C1CC(Cc2ccccc2)C(=O)N1Cc1ccco1 (centres unmarked) | 2.06
CC(=O)N1N=C(c2ccc3nccnc3c2)CC1c1ccccc1 (centres unmarked) | -34.9
CCSc1nc2c(c(=O)[nH]c(=O)n2C)n1C | 19.1
Cc1cccc(-n2ncc3c(NNC(=O)c4ccco4)ncnc32)c1 | 16.7
